Consider 53 molecules from PubChem BioAssay AID1346428 (National Center for Advancing Translational Sciences (NCATS), 2018).

Where “and” joins values, the source holds several entries; their conditions need not be identical. Identical values can stand only once. The campaign covered roughly 48,000 compounds. About 1,200 (2.5%) were called active. About 2% were inconclusive and are not listed.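 The calls were made as follows: active = activation of at least 60% and not above a set upper limit (about 1 call in 100 departs from these limits); inconclusive = activation of 40% to 60%, or above that upper limit; inactive = activation under 40%.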 Some of the results follow.

Sequence of UniProt O75388 (O75388 whole entry, looked up, the tested form may be a part): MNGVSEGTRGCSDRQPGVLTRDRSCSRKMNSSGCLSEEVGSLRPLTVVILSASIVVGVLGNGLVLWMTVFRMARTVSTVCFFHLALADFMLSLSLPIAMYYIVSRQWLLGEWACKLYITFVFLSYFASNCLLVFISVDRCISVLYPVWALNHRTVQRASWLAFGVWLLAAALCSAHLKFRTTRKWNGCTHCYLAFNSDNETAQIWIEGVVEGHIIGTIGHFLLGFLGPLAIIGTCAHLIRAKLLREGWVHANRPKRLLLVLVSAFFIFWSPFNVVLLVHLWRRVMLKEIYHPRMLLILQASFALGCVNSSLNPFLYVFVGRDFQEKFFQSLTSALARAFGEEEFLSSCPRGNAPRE

This assay has as its target Probable G-protein coupled receptor 32 (Homo sapiens) (UniProt O75388). Description: qHTS for Agonists of Human Resolvin D1 Receptor DRV1. Also: 0% is about no effect. As to conditions: CHO-K1 GPR32 beta-arrestin PathHunter luminescence, 90 min; at 76.9 µM; active compounds read high; zero percent set by DMSO-only wells. The gist of the method:
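GPR32 activation in stably transfected CHO-K1 cells, detected as beta-arrestin recruitment by enzyme-fragment complementation. Compound exposure: 90 min, 37 °C.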
On the technique in general: In qHTS, concentration-response curves come from the screen itself.
`Cc1ccc(-n2nc3c(N4CCC(C(=O)NCc5ccccc5Cl)CC4)nnc(C)c3c2C)cc1`: the activation was inactive: 5.12%. For `CCN(CC)C(=O)Nc1ccc2c(c1)N(Cc1ccccc1)C(=O)c1ccccc1S2` the value was inactive: -26%.

For the molecule `COc1ccc(OC)c(S(=O)(=O)NCCc2csc(-c3cccc(F)c3)n2)c1`, the activation is inactive: -18.1%.

Turning to `CCOC(=O)c1c(C)[nH]c(C)c1S(=O)(=O)NCC(=O)N1CCN(c2ccccc2OC)CC1`, the activation is inactive: 10.2%. Consider `Cc1ccc(-n2c(-c3ccco3)nc3c(cnn3-c3ccccc3Cl)c2=O)cc1`, for which the activation is inactive: -2.56%. Turning to `Cc1cccc(C(=O)Nc2nnc(S(=O)(=O)N(C)c3ccccc3C)s2)c1`, the activation is inactive: 31.7%.

Consider `COc1ccc(CNC(=O)CCCn2nc(C)c3c(C)n(-c4ccccc4)nc3c2=O)cc1`, for which the activation was inactive: -13.2%. Consider `COc1ccc(OC)c(NS(=O)(=O)c2ccc(-c3cc(C)no3)s2)c1`, for which the activation is inactive: -8.45%.

`CCCCCCc1ccc(O)cc1O`: the activation is active: 89.2%. For `CCN(C(=O)CSc1nc(-c2ccc(C(C)C)cc2)no1)c1cccc(C)c1` the value was inactive: -3.7%; for `CCc1ccc(CN2CCc3nc(N4CCN(CC)CC4)ncc3C2)cc1`, inactive: -28.8%. The result for `CN(C)c1ccc(CNC(=O)CCn2cccn2)cc1` reads inactive: 3.75%; that for `COc1ccc(CCNS(=O)(=O)c2cc(-c3cc(C)no3)ccc2C)cc1OC`, inactive: -12.2%; that for `O=C(Nc1cccc(F)c1)C1CCN(S(=O)(=O)c2cccc3nsnc23)CC1`, inactive: 4.36%. `CCn1cc2nc(SCc3cccc(Cl)c3)n(Cc3ccc(C)cc3)c(=O)c2n1`: the activation is inactive: -11.2%. The result for `Cc1ccc(Cl)cc1Nc1nn2c(=O)c3ccc(C(=O)N4CCCC(C)C4)cc3nc2s1` (stereo not drawn) reads inactive: 14.5%; that for `CC(C)c1cnc2c(c1SCC(=O)Nc1cccc(F)c1)c(=O)n(C)c(=O)n2C`, inactive: -25.2%. The result for `c1ccc(CSc2nc3ncccc3[nH]2)cc1` reads inactive: 5.04%; that for `O=C(Nc1cccc(C(F)(F)F)c1)C1CCCN1S(=O)(=O)c1cccc2nsnc12` (stereo not drawn), inactive: -12.1%. In the case of `Cc1cc(C)cc(OC(C)C(=O)Nc2c(C(=O)c3ccccc3)oc3ccccc23)c1` (stereo not drawn), the activation is inactive: -16.8%. The result for `Cc1ccc(CCNC(=O)c2ccc3c(c2)N(Cc2cccc(Cl)c2)C(=O)c2ccccc2S3(=O)=O)cc1` reads inactive: -22%; that for `CSc1ccc(C2c3c(oc4cc(C)cc(C)c4c3=O)C(=O)N2Cc2ccco2)cc1` (stereo not drawn), inactive: -9.82%. Consider `CCCN(CCC)S(=O)(=O)c1ccc(C(=O)Nc2sc3c(c2C(=O)OC)CCN(CC)C3)cc1`, for which the activation is inactive: 0.422%. `Cc1ccc(S(=O)(=O)N2CCC(C(=O)Nc3ccc(C)c(Cl)c3)CC2)cc1`: the activation was inactive: 21.6%. Take `COc1ccc(C(=O)COC(=O)C(Cc2c[nH]c3ccccc23)NC(=O)c2ccc(C(C)(C)C)cc2)cc1` (stereo not drawn): the activation was inactive: 34.1%.

Take `Cc1cn2c(=O)cc(COC(=O)c3cccc(NC(=O)c4ccccc4C)c3)nc2s1`: the activation is inactive: -17.3%. For `COc1ccc(-n2nc(C)c3c(C(F)(F)F)cc(-c4cccnc4)nc32)cc1` the value was inactive: 1.31%; for `CCOC(=O)c1c(C)[nH]c(C)c1S(=O)(=O)N1CCN(c2cccc(C(F)(F)F)c2)CC1`, inactive: -9.57%. For `CCN(CC)C(=O)Cn1c(=O)n(-c2ccc(Cl)cc2)c(=O)c2c3c(sc21)CCC3` the value was inactive: -15.4%; for `COc1ccc(CCNC(=O)C(=O)NCC(c2cccs2)S(=O)(=O)c2ccc(C)cc2)cc1` (stereo not drawn), inactive: 28.9%; for `O=C1c2[nH]nc(-c3ccccc3O)c2C(c2cccc(OCc3ccccc3)c2)N1CCO` (stereo not drawn), inactive: 10.2%. For `CCOC(=O)c1cc(OC(=O)c2ccccc2C)n(-c2ccccc2)n1` the value was inactive: 41.9%. `COCCCNC(=O)C1CCN(c2nc3ccc(C)cc3[nH]2)CC1`: the activation is inactive: -5.04%.

Consider `COc1cccc(N2CCN(C(=O)CCS(=O)(=O)c3ccc4c(c3)oc(=O)n4C)CC2)c1`, for which the activation was inactive: 26%.

For `CC(C)(c1ccc(O)cc1)c1ccc(O)cc1`, the activation was active: 64.1%. For `CC1(C)NC(=O)N(c2ccc([N+](=O)[O-])c(C(F)(F)F)c2)C1=O` the value was inactive: 20.1% and inactive: 17.3%; for `CCc1ccc(-n2c(=O)c3c4c(sc3n(CC(=O)N3CCC(C)CC3)c2=O)CCC4)cc1`, inactive: -23.4%; for `CCc1nonc1NC(=O)c1oc2ccc(Br)cc2c1C`, inactive: 4.62%.

Take `Cc1ccc(Cl)cc1NC(=O)c1oc2ccc(S(=O)(=O)N3CCCCC3)cc2c1C`: the activation was inactive: -1.37%. For `Cc1ccc(NC(=O)C2CCCN(S(=O)(=O)c3cccc4cccnc34)C2)cc1` (stereo not drawn) the value was inactive: -1.96%; for `Cc1ccc(Cl)cc1NC(=O)c1oc2ccc(S(=O)(=O)N(C)C3CCCCC3)cc2c1C`, inactive: -8.6%. For `Cc1ccc(S(=O)(=O)c2cn(Cc3cccc(C)c3)c3cc4c(cc3c2=O)OCO4)cc1` the value was inactive: -8.2%; for `CCOC(=O)c1ccc(NC(=O)CSc2cc(=O)n(CC)c3ccccc23)cc1`, inactive: -16.7%; for `Cc1nn(C(C)C(=O)N2CCN(c3ccc(Cl)cc3)CC2)c(=O)c2cc3occc3n12` (stereo not drawn), inactive: 7.98%. For `CC(=O)CSc1nnc2cc(C)c3cc(C)cc(C)c3n12` the value was inactive: -28.6%; for `CCC(CC)C(=O)Nc1nnc(SCc2cc(=O)n3cccc(C)c3n2)s1`, inactive: 4.35%. `CSc1ccc(/C=C/c2nc3ccccc3n2S(=O)(=O)c2cccc(Cl)c2)cc1`: the activation was inactive: -7.84%. For `Cc1ccc2c(c1)c(=O)c(C(=O)c1ccc3c(c1)OCO3)cn2Cc1ccc(Cl)cc1`, the activation is inactive: -21.5%. Turning to `CCOc1ccc(CN(C(=O)c2cc(=O)c3cc(C)cc(C)c3o2)C2CCS(=O)(=O)C2)cc1` (stereo not drawn), the activation is inactive: -23.1%. As for `COc1cc(NC(=O)CCc2c(C)nc3cc(-c4ccccc4)nn3c2C)cc(OC)c1OC`, the activation was inactive: -5.7%.

Consider `O=C(NCCc1ccc(Cl)cc1)C(=O)NCC(c1ccco1)S(=O)(=O)c1ccc(Cl)cc1` (stereo not drawn), for which the activation was inactive: 2.75%. For `CCOc1ccc(CN2C(=O)c3ccccc3Sc3ccc(C(=O)O)cc32)cc1`, the activation was inactive: -5.13%. For `NC(=O)CC[C@@H]1NC(=O)[C@H](Cc2ccccc2)NC(=O)[C@H](Cc2ccc(O)cc2)NC(=O)CCSSC[C@@H](C(=O)N2CCC[C@H]2C(=O)N[C@@H](CCCN=C(N)N)C(=O)NCC(N)=O)NC(=O)[C@H](CC(N)=O)NC1=O` the value was inactive: 9.5%.
